This passage reports z-score results from PubChem BioAssay AID488969 (Vanderbilt High Throughput Screening Facility, 2010).

Molecules are shown by their SMILES. Over roughly 110,000 compounds, “z-score” has its median near -0.1; the highest 2% begin near 2. Some of the results follow. Activity calls are given as the source filed them.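 How the source made its calls: active means z-score in the third read window above 3 or below -3; inactive means the rest.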

This assay addresses Metabotropic glutamate receptor 8 (Rattus norvegicus) (UniProt P70579). Kind of assay: mGluR8 Gi/Go-coupled signaling modulation – cell-based, rat, thallium flux, HTS, primary screen (AID 488969). The following applies: HEK293 rat mGluR8, GIRK (G protein-gated inwardly rectifying potassium channel) thallium flux, FluoZin2; at 10 µM; stronger effect = higher value; submaximal glutamate (EC20) added with thallium.
Chain of UniProt P70579 (P70579 whole entry, looked up): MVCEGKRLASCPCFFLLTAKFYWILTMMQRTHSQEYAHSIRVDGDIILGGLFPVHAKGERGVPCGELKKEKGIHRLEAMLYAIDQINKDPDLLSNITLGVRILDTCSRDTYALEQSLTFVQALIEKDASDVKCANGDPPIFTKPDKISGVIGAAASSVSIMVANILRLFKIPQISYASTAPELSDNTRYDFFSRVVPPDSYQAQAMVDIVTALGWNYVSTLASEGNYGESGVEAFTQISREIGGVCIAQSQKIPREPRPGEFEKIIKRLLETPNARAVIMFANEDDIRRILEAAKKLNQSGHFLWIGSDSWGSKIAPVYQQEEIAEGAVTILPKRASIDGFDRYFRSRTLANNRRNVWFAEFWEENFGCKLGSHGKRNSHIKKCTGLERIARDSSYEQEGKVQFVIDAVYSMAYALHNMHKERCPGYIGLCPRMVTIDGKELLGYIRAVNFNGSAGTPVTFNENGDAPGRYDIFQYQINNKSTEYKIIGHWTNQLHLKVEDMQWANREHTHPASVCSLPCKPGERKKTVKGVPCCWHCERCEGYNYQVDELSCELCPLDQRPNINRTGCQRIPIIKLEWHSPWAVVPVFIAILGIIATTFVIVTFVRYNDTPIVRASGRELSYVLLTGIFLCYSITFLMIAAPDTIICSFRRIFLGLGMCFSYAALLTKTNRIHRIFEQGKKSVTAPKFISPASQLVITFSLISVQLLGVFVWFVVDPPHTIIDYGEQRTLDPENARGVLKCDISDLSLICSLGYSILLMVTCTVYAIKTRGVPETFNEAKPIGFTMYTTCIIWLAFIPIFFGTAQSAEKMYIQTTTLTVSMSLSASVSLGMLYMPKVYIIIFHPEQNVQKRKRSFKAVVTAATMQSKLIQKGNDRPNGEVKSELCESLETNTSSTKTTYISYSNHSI
`Nc1nc(-c2ccc(F)cc2)cc(C(F)(F)F)n1`: the z-score was -0.44.

`COc1ccc(C(=O)NN=C(Cc2ccccc2)Cc2ccccc2)cc1OC`: the z-score is -0.165.

As to `Oc1ccc(N=Nc2n[nH]c(-c3ccc(Cl)cc3)n2)cc1`, the z-score came to 0.526.

Compound `CCCCCC(=O)NC(=S)NNC(=O)c1ccc([N+](=O)[O-])cc1` had a z-score of 2.66.

`Cc1ccc(Cn2c(=O)sc3ccccc3c2=O)cc1`: the z-score stood at 0.0456.

Turning to `CCCCNC(=O)c1c(N)n(/N=C/c2ccccn2)c2nc3ccccc3nc12`, the z-score was -0.0364.

`COC(=O)c1ccc(CSc2nc(N)cc(N)n2)cc1` gave a z-score of 0.138.

`Cc1ccc(NC(=O)NCCCc2ccccc2)cc1` showed a z-score of -0.0756.

With `Cc1ccc(/C=C/C(=O)c2ccccc(=O)c2O)cc1C`, the z-score was active: 5.65.

For `Cc1ccc(NC(=O)CSc2ncc(-c3ccccc3)n2C(=O)c2ccccc2)cc1`, the z-score was -0.138.

`Cc1cccc(C(=O)/C=C2/c3ccccc3CC(C)(C)N2C)c1` had a z-score of -0.509.

With `CCOc1ccc2c(c1)-c1c(ssc1=S)C(C)(C)N2`, the z-score turned out to be 0.474.

For `CCCCN(Cc1ccccc1)C(=O)c1cnc2n(c1=O)CCS2`, the z-score is -0.308.

With `Cc1ccc(-n2c(NN)nc3ccccc3c2=O)c(C)c1`, the z-score came out at 0.522.

For `CCN(c1cccc(C)c1)S(=O)(=O)c1ccc2[nH]c(=O)c(=O)[nH]c2c1`, the z-score stood at 0.0977.

In turn, `CC(CCc1ccccc1)NC(=O)C(Cc1ccccc1)NS(=O)(=O)c1cccs1` (stereo unspecified) came in with a z-score of -0.446.

As to `CN(CC(=O)Nc1ccc2c(c1)OCCO2)S(=O)(=O)c1ccc(Br)s1`, the z-score was -0.249.

With `O=c1[nH][nH]c(C(F)(F)F)c1C=Nc1ccccc1Cl`, the z-score turned out to be 0.0515.

Turning to `CCn1c(O)c(N=NC(=O)Cn2ccc(C(F)(F)F)n2)c2ccccc21`, the z-score came to 0.53.

`COc1ccc(/C=C2/SC(=O)N(CCC(=O)Nc3ccc(S(=O)(=O)Nc4nccs4)cc3)C2=O)cc1`: the z-score was -0.507.

As to `c1csc(CNc2nc3ccccc3n2CCN2CCOCC2)c1`, the z-score is 0.928.

`Cc1ccc2c(CC(=O)Nc3nc(C)cs3)coc2c1` displayed a z-score of 0.287.

For `Cn1cc(Cl)c(C(=O)NC(=S)Nc2sc3c(c2C#N)CCCCC3)n1`, the z-score is -0.554.

`COC(=O)c1ccc(-n2nnnc2SCC(=O)NCc2cccc(C(=O)O)c2)cc1` returned a z-score of -0.61.

`Cc1ccc(-n2nnc3c(=O)n(CC(=O)NCc4ccco4)cnc32)cc1`: the z-score is -0.615.

As to `Cc1c(OCC(=O)OC(C)C)ccc2c3c(c(=O)oc12)CCC3`, the z-score was 0.0982.

Consider `COc1ccc(-c2cc(C(F)(F)F)n3nc(C(=O)O)cc3n2)cc1OC`, for which the z-score is -0.445.

In turn, `O=C(NNc1ccccc1[N+](=O)[O-])Nc1ccccc1` had a z-score of -0.0971.

In turn, `Cc1cc(C)c(C#N)c(SCSCc2ccccc2)n1` registered a z-score of -0.445.

Take `C=CCSc1nnc(-c2cccnc2)o1`: the z-score was -0.603.

Compound `Cc1ccccc1NS(=O)(=O)c1cc(C(=O)Nc2cccc(N(C)S(C)(=O)=O)c2)ccc1C` yielded a z-score of -0.267.

For `COC(=O)C(NC=O)C(O)(Cc1ccccc1)C(F)(F)F` (stereo unspecified), the z-score was -0.199.

The compound `CCC(=O)Nn1cnc2c(c1=O)C1(CCCCC1)Cc1ccccc1-2` displayed a z-score of -0.521.

For the compound `CCn1c(C)nc2cc(C(=O)NNC(=S)Nc3ccc(Cl)cc3Cl)ccc21`, the z-score is -0.372.

Take `COc1cccc2cc(C(=O)N3CCN(c4ccc(C)cc4C)CC3)c(=O)oc12`: the z-score was -1.05.

The compound `CS(=O)(=O)NN1C(=O)c2ccccc2NC1c1c[nH]c2ccccc12` (stereo unspecified) showed a z-score of 0.0459.

In turn, `ON1C2CCCCC2N(O)C1c1ccccc1C(F)(F)F` (stereo unspecified) had a z-score of -0.161.

`CCN(CCO)c1ncnc2c1sc1nc(C(C)C)c3c(c12)CC(C)(C)OC3` had a z-score of -0.241.

Regarding `COc1cc(CN2CC(C)OC(C)C2)cc(OC)c1` (stereo unspecified), the z-score is 0.361.

Regarding `COCCNC(=O)CSCc1nc(-c2ccc(SC)cc2)oc1C`, the z-score is -0.24.

`O=C(COC(=O)CCc1c[nH]c(=O)[nH]1)Nc1cccc(Cl)c1`: the z-score was -0.0238.

`Cc1cc2c(C)nc(N/N=C/c3ccc([N+](=O)[O-])cc3)nc2o1` displayed a z-score of -0.272.

Turning to `CCCCOc1ccc(CNC(=O)NS(=O)(=O)c2ccc(OCC)cc2)cc1`, the z-score was 0.401.

`O=C(Cc1ccccc1)NCC(=O)OCC(=O)c1ccc([N+](=O)[O-])cc1` came in with a z-score of -0.117.

In the case of `O=C(/C=C/c1ccc(Cl)c(Cl)c1)N1CCc2ccccc21`, the z-score worked out at 0.293.

In turn, `CC(C)Oc1ccc(/C=N/NC(N)=S)cc1` showed a z-score of 1.24.

In turn, `COc1ccc(-c2csc(N(CC3CCCO3)C(=O)c3ccco3)n2)cc1` (stereo unspecified) displayed a z-score of -0.318.

For `Cc1ccc(CNC(=O)C2CC(=O)N(C3CCCCCCC3)C2)cc1` (stereo unspecified), the z-score is 0.438.

Compound `CN1CCN(C(=O)c2ccc(COc3ccc(Cl)cc3Cl)cc2)CC1` came in with a z-score of 0.0492.

In the case of `Cc1ccc(S(=O)(=O)N(C)Cc2ccc(C(=O)N/N=C/c3ccc(OC(F)F)cc3)cc2)cc1`, the z-score is 0.0686.

The compound `Cc1cc(C)c(NC(=O)CS(=O)CC(=O)NC2CCCc3ccccc32)c(C)c1` (stereo unspecified) showed a z-score of -0.236.

On to `CCOC(=O)C(C(=O)OCC)C(=O)c1cc(OC)c(OC)c(OC)c1`, for which the z-score was 0.0614.

In turn, `CCOC(=O)CSc1nnc(-c2cccc(Cl)c2)n1CC` gave a z-score of 1.3.

`CCCCN(C(=O)CNC(=O)c1ccco1)C(C(=O)NC1CCCCC1)c1ccc(OC)cc1OC` (stereo unspecified) gave a z-score of 0.432.

Take `CCCC/C(C)=N/NC(=O)C(=O)NCCc1ccccc1`: the z-score is -0.418.

As to `COc1ccc(NS(=O)(=O)c2ccc(N3CCCC3)c(NC(=S)Nc3ccc(SC(F)F)cc3)c2)cc1`, the z-score is -0.258.

Compound `CC(C)CC(=O)NC(=S)Nc1ccc(N2CCOCC2)cc1` yielded a z-score of 1.36.

Take `CCNC(=O)c1c(O)c2cccc3c2n(c1=O)CC3`: the z-score was -0.449.

Compound `COc1ccc(C(=O)NN/C(C)=C/C(=O)C(F)(F)C(F)(F)C(F)(F)F)cc1` yielded a z-score of 0.319.

Take `Cc1nn(C(C)(C)C)c(OC(=O)c2cccs2)c1Sc1ccccc1`: the z-score is 0.138.

`COc1cccc2cc(C(=O)N3C(C)CCCC3C)c(=O)oc12` (stereo unspecified) yielded a z-score of -0.135.

For `CON(C)c1nc(NCC(C)C)nc(OCC#N)n1`, the z-score is -0.285.

The compound `CCOC(=O)c1c(-c2cccs2)csc1NC(C)=O` showed a z-score of -0.908.

On to `CN(Cc1ccccc1)C(=O)COC(=O)C1=NNC(=O)CC1`, for which the z-score was determined as 0.282.

For `CCc1nc(C)ccc1OC(=O)C12CC3CC(CC(C3)C1)C2`, the z-score was 0.238.

As for `CC(=O)Nc1ccc(S(=O)(=O)N2CCN(C(=O)N3CCOCC3)CC2)cc1`, the z-score was found to be 0.101.

The compound `O=C(CC1Oc2ccccc2NC1=O)NC1CC1` (stereo unspecified) returned a z-score of 2.19.

In turn, `O=C(Cn1cc(SCc2ccccc2Cl)c2ccccc21)N1CCOCC1` registered a z-score of 0.00877.

Compound `O=C1c2ccccc2C(=O)N1CCC(c1ccc(F)cc1)c1ccco1` (stereo unspecified) yielded a z-score of 0.111.

In turn, `COc1ccc(Sc2cnn(-c3ccccc3)c(=O)c2Cl)cc1` yielded a z-score of -0.936.

Compound `O=C(c1ccc2c(c1)OCO2)[C@@H]1[C@@H]2C(=O)N(C3CCCCC3)C(=O)[C@@H]2C2c3ccccc3C=CN21` (stereo partly specified) displayed a z-score of 0.463.
